The text below walks through data of patent US20250236878A1 (priority 2019, published 2025).

For data set [1] the following is noted: A540 30 min post-treatment, 37° C., citrate buffer pH 4.9 (Table 55). The method, then:
CM-pachyman was carboxymethylated with chloroacetic acid to increase solubility in aqueous solutions.
An amount of 0.125 g of CM-pachyman from Poria cocos was dissolved in 23.5 mL water, at 90° C., and diluted to 25 mL in 0.5 M sodium citrate buffer, pH 4.9.

The subject of data set [2] is kiwi Actinidiae deliciosa 'Hayward' plants. Particulars: 29 DAI; foliar application. The method, then:
24-hours after the initial treatments, all plants except for the uninfected controls were sprayed with 1×10^8 cfu/mL PSA-V inoculum using a 5 L hand-held pressurized sprayer aimed at the underside of leaves until thoroughly covered. The uninfected control was sprayed with water alone. Potted plants were then transported to Pukehina and placed in an area with overhead misting for 48 hours to mimic environmental conditions for PSA-V infection, with uninfected control plants separated from infected plants. After 48 hours, a subset of plants was then removed from the misting area and allowed to briefly dry before application of Serine Protease 2 (SEQ ID NO: 795). After the final treatments, all plants were moved to their final outdoor trial site, randomized positions in Pukehina. Average daily temperature at the trial site was 20.75° C. with a total rainfall of 277 mm over 34 days. […] Plants were visually monitored throughout the trial period for PSA-V disease assessments, with the same assessor recording the % of leaf area covered in spots at 6 days after inoculation (6 DAI), 16 DAI, 23 DAI and 29 DAI. Additionally, each plant was assessed for treatment phytotoxicity effects at 29 DAI on a scale of 0-10, with 0=no leaf phytotoxicity and 10=very severe leaf phytotoxicity symptoms. […] P-values were calculated for each treatment vs. the untreated control.

B1: SEQ ID NO: 775: β-1,3-D-glucanase (protein)
chain: AGPAGETAGRTVQKAAQGAEAAPAAVLFEENFDGPAGSAVDSRRWQLETGDNSGNNHERQYYTPGNANAALDGNGNLVITARKENPGNYQCWYGRCEYTSARMNTAGKFTTTYGHIEARMKLPRGQGMWPAFWMLGHDIGSVGWTNSGEIDIMENVGYEPGTVHGTLHGPGYSGGEGIGAGYTLPGGRAFADDFHTFAVDWSPNSITWSVDGQVYQRRTPADLGGDRWVFDKPFFLILNLAVGGDWPGLPDSSTVFPQKLVVDYVRVTSGGDSGGGGGGRTGTITGLAGKCLDVAWADTANGTPVQIHDCNGNAAQQWTVGTDGTIRALGKCLDVSGAGKADGTPVQIWDCNGTAAQQWVVTGARDIVNPNADKCLDVRDNNSANGTKTQIWTCSGTANQKWNTP
modifications: Streptomyces sp. S27
For the molecule B1, the “activity on CM-pachyman from Poria cocos” value in data set [1] is “have activity”.

B2: SEQ ID NO: 773: β-1,3-D-glucanase (protein, listed as Kitasatospora phosalacinea)
chain: ATTPLAAAPVAAGNWGDDFDGPAGAAVDPAKWTLETGGSGNGNHELQYYTAGAANAALDGQGHLVITAKRNTDPGLSCWYGTCQYTSARLNTSRTFTQAYGHFESRIKIPRGQGIWPAFWMLGNDLGTAGWPNSGEIDVMENIGREPGTVHGTIHGPGYSGAGGIGAPYSLPAGQSFADAFHTFAVDWSPTAITWSVDGTAYQTRTPADLGGNRWVFDHPFFVILNLAVGGDWPGSPDGSSTYPQTMTVDYVHTTTWGGSTGGSYTGQITGPGGMCMDVAGASSADSTPIQLHNCTGNAAQQWTVGADGTVRALGKCLDVAAASHNDGAAIQLYTCNGTSAQQWTHRSGNDLLNPGSGKCLDSPNGSSADGTHLQLWTCNGTGAQKWTLG
Turning to B2, the “activity on CM-pachyman from Poria cocos” value in data set [1] is recorded as “have activity”.

B3: SEQ ID NO: 774: β-1,3-D-glucanase (protein)
chain: RTAAPEQARTAAGAAAAVSTFSDTFDGPAGAAVDSSKWTLETGDNVNNHERQYYTSGTKNAALDGQGHLVITARKENPAGYQCWYGSCQYTSARLNTAGKFNAQYGHVEARMKIPRGQGMWPAFWMLGTPVNWPDSGEIDVMENVGFEPSTVHGTIHGPGYSGSGGIGAAYSLPNGQAFADAFHTFAVDWAPDSITWSVDGNVYQRRTPADLGGKSWVFNKPFFLILNLAVGGYWPGDPDGSTQFPQTLVVDSVSVTTSGGGAGVPIRGLAGKCVDVAGANSANGTPVQLYDCNGTGAQAWTAGSDGTLRALGKCLDVSGGGTADGTPVQLWDCNGSPAQQWALPAARDIVNPQANKCLDVTGNNAANGTRLQIWTCTGGANQKWTVG
modifications: Streptomyces sp. SYBC17
Consider B3, for which, in data set [1], the “activity on CM-pachyman from Poria cocos” value was “have activity”.

B4: Serine Protease 2: serine protease 2 cloned from Bacillus subtilis, four substitutions relative to SEQ ID NO: 722 (protein, listed as Bacillus subtilis)
chain: SSKTSADLEKAEVFGDIDMTTSKKTTVIVELKEKSLAEAKEAGESQSKSKLKTARTQAKNKAIKAVKNGKVNREYEQVFSGFSMKLPANEIPKLLAVKDVKAVYPNVTYKTDNMKDKDVTISEDAVSPQMDDSAPYIGANDAWDLGYTGKGIKVAIIDTGVEYNHPDLKKNFGQYKGYDFVDNDYDPKETPTGDPRGEATDHGTHVAGTVAANGTIKGVAPDATLLAYRVLGPGGSGTTENVIAGVERAVQDGADVMNLSLGNSLNNPDWATSTALDWAMSEGVVAVTSNGNSGPNGWTVGSPGTSREAISVGATQLPLDEYAVTFGSYSSAKVMGYNKEDDVKALNNKEVELVEAGIGEAKDFEGKDLTGKVAVVKRGSIAFVDKADNAKKAGAIGMVVYNNLSGEIEANVPGMSVPTIKLSLEDGEKLVSALKAGETKTTFKLTVSKALGEQVADFSSRGPVMDTWMIKPDISAPGVNIVSTIPTHDPDHPYGYGSKQGTSMASPHIAGAVAVIKQAKPKWSVEQIKAAIMNTAVTLKDSDGEVYPHNAQGAGSARIMNAIKADSLVSPGSCSYGTFLKENGNETKNETFTIENQSSIRKSYTLEYSFNGSGISTSGTSRVVIPAHQTGKATARVKVNTKKTKAGTYEGTVIVREGGKTVAKVPTLLIVKEPDYPRVTSVSVSEGSVQGTYQIETYLPAGAEELAFLVYDSNLDFAGQAGIYKNQDKGYQYFDWDGTINGGTKLPAGEYYLLAYAANKGKSSQVLTEEPFTVE
Regarding B4, the “Average Phytotoxicity Score (0-10)” value in data set [2] is on record as 0.0 (±0.0).

B5: SEQ ID NO: 732: β-1,3 endoglucanase, Paenibacillus species (protein)
chain: AETAGTTITSMSYFSTADGPIITKSGVGQASYGFVMPIFNGGSATWNDVAQDLGVKVKVNGSWVDIDSVSSFVYNQNWGHWNDGGFTGYWFTLSATTEIQLYSKANEVTLEYSLVFQNINKTTITAMTPTQGPQITAGFTGGAGFTYPIFNHDPAITYAAVADDLKVYVKPVNSSQWIDIDNNAASGWIYDQNFGQFTDGGGGYWFNVTESINVKLESKTSSTNIVYTISFNEPVRNSYVLTPYEGTTFTADASGAIGIPLPKIDGGAPIGTELGNFVYQININGQWVDLDNSSQSGFVYSANGYNNMSAANQWGYWADHIYGLWFQPIQVDMQIRIGYPLNGQAGGSVGSNFVNYTLIGNPDAPRPDVNDQEDIPIGTPNDSAIEGMNLIWQDEFNGTALDQSKWNYETGYYLNDDPNTWGWGNSELQHYTDRAQNVFVQDGKLNIKALNEPKSFPQDPSRYAQYSSGKINTKDHFSLKYGRVDFRAKLPTGNGIWPALWMLPQDNVYGTWASSGEIDVMEAKGRLPGSTSGAVHFGGQWPTNRYLSGEYHFPEGQTFANDYHVYSVVWEEDNIKWYVDGKFFFKVTRDQWYSAAAPNNPNAPFDQPFYLIMNLAIGGTFDGGRTPDPSDIPATMQVDYVRVYKEGEGGGQNPGNVPVTGVTVNPTTAQVEVGQSVQLNASVAPSNATNKQVTWSVSGSSIASVSPNGLVTGLAQGTTTVTATTADGNKAASATITVAPAPSTVIVIGDEVKGLKKIGDDLLFYVNGATFADLHYKVNNGGQLNVAMAPTGNGNYTYPVHNLKHGDTVEYFFTYNPGQGALDTPWQTYVHGVTQGTPE
modifications: Paenibacillus spp.
notes: β-1,3 endoglucanase, Paenibacillus species
B5: the “activity on CM-pachyman from Poria cocos” value in data set [1] is given as “highest activities”.
